# Data reported in ChEMBL document CHEMBL4888484, “Replenishing the malaria drug discovery pipeline: Screening and hit evaluation of the MMV Hit Generation Library 1 (HGL1) against asexual blood stage Plasmodium falciparum ,using a nano luciferase reporter read-out” (2022).
# Screen size: about 150,000 compounds; about 540 (0.36%) showed an effect of 50% or more. Some of the results follow.
# Tested on: Plasmodium falciparum
# Experiment: Primary screen in NF54 nanoGlo assay, in single point, at 2uM, 72h; a lower Z score goes with more inhibition
# Format: functional, Erythrocyte
# Conditions: timepoint 72 hour
SMILES,% Inhibition,Z score
O=C(Cc1noc(-c2ccsc2)n1)NC1CCCCC1,-6%,0.61
O=C(NC1CCCCCCC1)[C@@H]1COc2ccccc2O1,-10%,1.17
COCCN1CCN([C@@H](C)Cc2ccc(C)cc2)CCC1=O,-14%,1.88
Cc1[nH]c(-c2ccc(F)cc2)cc1C(=O)N1CCN(c2cccc(Cl)c2)CC1,6%,-1.1
CCCCc1c(C)nn(-c2nc(C)c(C(=O)Nc3ccc(C)c(Cl)c3)s2)c1O,-5%,0.66
CO[C@H]1[C@H](NC(=O)CC2CCCC2)c2ccccc2C12CCNCC2,5%,-0.91
CCNC(=O)CN(CC(=O)NCC)S(=O)(=O)c1ccc(Br)cc1,-6%,0.62
Cc1ncsc1CNC(=O)NCCc1nccn1C(F)F,-2%,0.23
O=C(NC[C@]1(O)CCOc2ccccc21)C(=O)Nc1cccc(N2CCCC2=O)c1,0%,-0.01
Cc1nnccc1C(=O)NC1(C(=O)N2CCOCC2)CCCCC1,-1%,0.08
CCn1nc(C)c(CNc2ccc(OC)nc2C)c1C,-11%,1.08
Cc1c2c(c(C)n1C)[C@H](C(=O)NC1CCC(C)CC1)N(c1ccc(Cl)cc1)C2=O (stereo partly specified),2%,-0.33
CCOc1ccccc1C1c2[nH]c3ccccc3c2C[C@H]2C(=O)N(CCc3ccc(F)cc3)CC(=O)N12 (stereo partly specified),2%,-0.26
N#CC1(C(=O)NC2CCC(C(=O)O)C2)CCCC1 (stereo unspecified),-10%,1.23
O=C(Nc1ccccc1)c1ccc(-c2nc3cccnc3n(C3CCCC3)c2=O)cc1,-2%,0.33
CC(=O)c1cccc(C(=O)N2CCC(c3nccn3CC3CC3)CC2)c1,-4%,0.39
Cc1ccccc1C(=O)NCc1ccccc1COCc1ccccc1,-4%,0.84
CC1CCCC(CNC(=O)NCc2cc(Cl)sc2Cl)O1 (stereo unspecified),0%,-0.03
Cc1cc(C(=O)N2CCC[C@@H]2CNC(=O)OC(C)(C)C)c(C)o1,-18%,1.97
Cc1noc(CN2CCN(Cc3cc4c(cc3Cl)OCO4)CCC2=O)n1,-11%,2.14
CN(C)[C@@]1(c2nnnn2C2CCCC2)CCN(C(=O)C2CCCC2)C1,-2%,0.28
CCc1nc2ccc(Cl)cn2c1C(=O)N1CCc2cnc(N)nc2C1,-11%,1.86

SMILES,% Inhibition,Z score
Cc1ccc(Cn2nnc3cc(C(=O)N4CCc5ccccc54)ccc32)cc1,-10%,1
COC[C@H]1CN(C(=O)CCc2nc3ccccc3[nH]2)CCC1(F)F,-8%,1.42
Cc1ncnc(C[C@@H]2COc3ccccc3C2)c1C,-12%,2.09
COc1ccc(Oc2ccc(-c3noc([C@H]4CC(=O)N(c5ccc(C)cc5)C4)n3)cc2)cc1,-6%,0.69
CC(C)CN1CCN(C(=O)NCc2ccc(Cl)cc2)[C@@H](C)C1=O,3%,-0.31
Cc1cccc2c1NC1(CCCC1)[C@@H](C)C2,-41%,4.82
COCc1cccc(C(=O)N2CCCC3(CCN(C)CC3)CC2)c1,-13%,1.28
COc1ccc(C2NC(=O)C(c3ccc(OC)cc3)NC2=O)cc1 (stereo unspecified),27%,-3.38
COCc1cc(CN(C)C(=O)CCc2scnc2C)n[nH]1,0%,0.02
OC[C@H]1CCCCN1Cc1ccc(OCc2ccccc2F)nc1,-18%,2.27
CCOc1ccc(CC(=O)N2CCC3(CC2)N(CCOC)C(=O)CS3(=O)=O)cc1,-11%,1.65
Cc1nc(CC(=O)NCC2(N3CCOCC3)CCCCC2)cs1,-1%,0.25
Cc1nc(CCCn2ccnc2)n(-c2ccccc2C(=O)O)n1,-12%,1.85
CC(C)OC1CC(NC(=O)NC2CCC(F)(F)CC2)C1(C)C (stereo unspecified),-10%,1.45
O=C(NC1CCOC1C1CC1)N1CC(F)C1 (stereo unspecified),-6%,1.25
CC1CC1C(=O)NCCc1ccc2[nH]ccc2c1 (stereo unspecified),-1%,0.13
CC(=O)N[C@@H]1COCC[C@@H]1OCC1CCC1,-5%,0.99
O=C(NCc1ccncc1)[C@H]1CCCN(c2nnc3ccc(C(F)(F)F)cn23)C1,-20%,2.14
CCOC[C@@H](O)CN(C1CC1)C1Cc2ccccc2C1,1%,-0.08
CCOc1ccc(CN(CC#N)CC(=O)OC)cc1OC,6%,-1.04
Cc1ccc(-n2c(=O)c3cc4c(=O)n(-c5ccc(C)c(C)c5)c(=O)c4c(C(=O)c4ccccc4)c3c2=O)cc1C,-7%,1.04
